Reference: article PMC5892938
The other results are listed elsewhere or left out. At the low end of the ranking the order means little.

Molecular target: GST-SBP-SLBP (stem-loop binding protein) (UniProt Q14493)
Assay: targeted RNA Bind-n-Seq;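 further: DESeq read counts versus GST-SBP nonspecific binding control pulldown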
Conditions: RBNS binding buffer: 25 mM Tris pH 7.5, 150 mM KCl, 3 mM MgCl2, 0.1% Tween, 0.5 mg/mL BSA, 1 mM DTT; 27 nM protein, 750 pM RNA pool; temperature not stated; high values mean tight binding

Row | Sequence | binding signal (log2 fold change)
1 | GGUCACGUCUCAAUCAACUCUAUGUCAGGAGUUUUCUCCUGCUUUUUCAACAGCUCGCAGUCAAG | -0.0413
2 | GGUCACGUCUCAAUCAACUCAUUUCCAGGAGUUUUCUCCUGUUUUCUCAACAGCUCGCAGUCAAG | -0.0578
3 | GGUCACGUCUCAAUCAACUCUUUUCCAGGAGUUUACUCCUGUUUUUUCAACAGCUCGCAGUCAAG | -0.172
4 | GGUCACGUCUCAAUCAACUCAACUUCCAGGGAAAACCCUGGCAAUUUCAACAGCUCGCAGUCAAG | -0.034
5 | GGUCACGUCUCAAUCAACUCAUCCUCAGGAGUUUACUCCUGCAAAGUCAACAGCUCGCAGUCAAG | 0.0962
6 | GGUCACGUCUCAAUCAACUCAUCGGAGGGGGGGAAAACCCCUUUACCCUCACUCUCAACAGCUCGCAGUCAAG | -0.18
7 | GGUCACGUCUCAAUCAACUCACUAGAGGGGGGGAAAACCCCUUUGCCCUCGAUAUCAACAGCUCGCAGUCAAG | -0.305
8 | GGUCACGUCUCAAUCAACUCAUUCGAGGGGGGGAAAACCCCUUUACCCUCAAAAUCAACAGCUCGCAGUCAAG | 0.129
9 | GGUCACGUCUCAAUCAACUCAUUCCCCAGGGAAACCCCUGGUAUAUUCAACAGCUCGCAGUCAAG | 0.0773
10 | GGUCACGUCUCAAUCAACUCAAUCUCCAGGGAAACCCCUGGCUAACUCAACAGCUCGCAGUCAAG | 0.101
11 | GGUCACGUCUCAAUCAACUCAUUUUCAGGAGUUUCCUCCUGCUAACUCAACAGCUCGCAGUCAAG | 0.0221
12 | GGUCACGUCUCAAUCAACUCAAAAGAGGGGGGGAAAACCCCUUUGCCCUCAUUCUCAACAGCUCGCAGUCAAG | -0.136
13 | GGUCACGUCUCAAUCAACUCAAUAGAGGGGGGGAAAACCCCUUUGCCCUCACUAUCAACAGCUCGCAGUCAAG | -0.765
14 | GGUCACGUCUCAAUCAACUCUACUUCAGGAGUUUACUCCUGUUAACUCAACAGCUCGCAGUCAAG | -0.151
15 | GGUCACGUCUCAAUCAACUCAUCUCCCAGGGAAACCCCUGGCUUAUUCAACAGCUCGCAGUCAAG | -0.283
16 | GGUCACGUCUCAAUCAACUCAAUCCCAGGAGUUUACUCCUGUAUUCUCAACAGCUCGCAGUCAAG | 0.00653
17 | GGUCACGUCUCAAUCAACUCUACUCCAGGAGUUUCCUCCUGUUAUCUCAACAGCUCGCAGUCAAG | 0.0932
18 | GGUCACGUCUCAAUCAACUCUUUUUCAGGAGUUUACUCCUGUUUACUCAACAGCUCGCAGUCAAG | 0.162
19 | GGUCACGUCUCAAUCAACUCUUCCUCCAGGGAAACCCCUGGCAUUUUCAACAGCUCGCAGUCAAG | -0.000228
20 | GGUCACGUCUCAAUCAACUCUUUUUCCAGGGAAACCCCUGGCAAAUUCAACAGCUCGCAGUCAAG | -0.0371
21 | GGUCACGUCUCAAUCAACUCAACUCCAGGAGUUUACUCCUGUAAUUUCAACAGCUCGCAGUCAAG | -0.142
22 | GGUCACGUCUCAAUCAACUCAAAAGAGGGGGGGAAAACCCCUUUGCCCUCAACAUCAACAGCUCGCAGUCAAG | -0.0239
23 | GGUCACGUCUCAAUCAACUCAACUCCCAGGGAAAACCCUGGUUAUCUCAACAGCUCGCAGUCAAG | -0.00437
24 | GGUCACGUCUCAAUCAACUCAUUUUCAGGAGUUUGCUCCUGUUUAUUCAACAGCUCGCAGUCAAG | 0.186
25 | GGUCACGUCUCAAUCAACUCUUCUUCCAGGGAAAACCCUGGCAUUUUCAACAGCUCGCAGUCAAG | 0.0828

Row | Sequence | binding signal (log2 fold change)
26 | GGUCACGUCUCAAUCAACUCAACUCCAGGAGUUUACUCCUGUUUUUUCAACAGCUCGCAGUCAAG | -0.0977
27 | GGUCACGUCUCAAUCAACUCAAUUCCAGGAGUUUGCUCCUGUAUAUUCAACAGCUCGCAGUCAAG | -0.0398
28 | GGUCACGUCUCAAUCAACUCAUCCUCCAGGGAAAACCCUGGUUUUUUCAACAGCUCGCAGUCAAG | 0.0507
29 | GGUCACGUCUCAAUCAACUCAGUCUCCAGGGAAAACCCUGGCAUAUUCAACAGCUCGCAGUCAAG | 0.147
30 | GGUCACGUCUCAAUCAACUCUUCUCCAGGAGUUUUCUCCUGUAUUCUCAACAGCUCGCAGUCAAG | -0.111
31 | GGUCACGUCUCAAUCAACUCCUUAGAGGGGGGGAAAACCCCUUUGCCCUCCACAUCAACAGCUCGCAGUCAAG | -0.263
32 | GGUCACGUCUCAAUCAACUCAUUCUCAGGAGUUUCCUCCUGCUAUUUCAACAGCUCGCAGUCAAG | 0.178
33 | GGUCACGUCUCAAUCAACUCUUCCUCCAGGGAAACCCCUGGCUAACUCAACAGCUCGCAGUCAAG | -0.129
34 | GGUCACGUCUCAAUCAACUCAGUUUCCAGGGAAAACCCUGGCAUAUUCAACAGCUCGCAGUCAAG | 0.18
35 | GGUCACGUCUCAAUCAACUCUAUUUCAGGAGUUUUCUCCUGUUAUUUCAACAGCUCGCAGUCAAG | 0.104
36 | GGUCACGUCUCAAUCAACUCAAUCUCCAGGGAAAUCCCUGGUAAAUUCAACAGCUCGCAGUCAAG | 0.141
37 | GGUCACGUCUCAAUCAACUCUUUUUCAGGAGUUUACUCCUGCAUUUUCAACAGCUCGCAGUCAAG | 0.0736
38 | GGUCACGUCUCAAUCAACUCAUCGCCCAGGGAAAACCCUGGUAUUUUCAACAGCUCGCAGUCAAG | 0.0628
39 | GGUCACGUCUCAAUCAACUCAAUCCCCAGGGAAAACCCUGGCAUAGUCAACAGCUCGCAGUCAAG | -0.107
40 | GGUCACGUCUCAAUCAACUCAAUGUCAGGAGUUUCCUCCUGCUUUUUCAACAGCUCGCAGUCAAG | 0.124
41 | GGUCACGUCUCAAUCAACUCAACUUCAGGAGUUUGCUCCUGCUAACUCAACAGCUCGCAGUCAAG | 0.173
42 | GGUCACGUCUCAAUCAACUCUAUGGCAGGAGUUUACUCCUGGAAUCUCAACAGCUCGCAGUCAAG | -0.0279
43 | GGUCACGUCUCAAUCAACUCAGUUUCCAGGGAAACCCCUGGUUUUUUCAACAGCUCGCAGUCAAG | -0.156
44 | GGUCACGUCUCAAUCAACUCUAUCGAGGGGGGGAAAACCCCUUUACCCUCUACAUCAACAGCUCGCAGUCAAG | -0.257
45 | GGUCACGUCUCAAUCAACUCAAAAGAGGGGGGGAAAACCCCUUUACCCUCAUCUUCAACAGCUCGCAGUCAAG | 0.535
46 | GGUCACGUCUCAAUCAACUCGUUUUCAGGAGUUUCCUCCUGCAUUUUCAACAGCUCGCAGUCAAG | 0.013
47 | GGUCACGUCUCAAUCAACUCAGUUCCAGGAGUUUACUCCUGCUUAUUCAACAGCUCGCAGUCAAG | 0.0709
48 | GGUCACGUCUCAAUCAACUCUUCCUCCAGGGAAAACCCUGGCAAACUCAACAGCUCGCAGUCAAG | -0.204
49 | GGUCACGUCUCAAUCAACUCUACUCCCAGGGAAAGCCCUGGCAAACUCAACAGCUCGCAGUCAAG | -0.256
50 | GGUCACGUCUCAAUCAACUCUUCUUCAGGAGUUUUCUCCUGCAUACUCAACAGCUCGCAGUCAAG | 0.0695

Row | Sequence | binding signal (log2 fold change)
51 | GGUCACGUCUCAAUCAACUCAACUUCAGGAGUUUGCUCCUGCUUUCUCAACAGCUCGCAGUCAAG | -0.0163
52 | GGUCACGUCUCAAUCAACUCUUUCCCCAGGGAAAACCCUGGUUAUGUCAACAGCUCGCAGUCAAG | -0.209
53 | GGUCACGUCUCAAUCAACUCUAUUUCAGGAGUUUUCUCCUGCAUAUUCAACAGCUCGCAGUCAAG | 0.0862
54 | GGUCACGUCUCAAUCAACUCAUCGGCCAGGGAAAACCCUGGGAAUUUCAACAGCUCGCAGUCAAG | -0.0757
55 | GGUCACGUCUCAAUCAACUCUAUUCCAGGAGUUUCCUCCUGUUAAUUCAACAGCUCGCAGUCAAG | 0.0551
56 | GGUCACGUCUCAAUCAACUCAAUCCCCAGGGAAACCCCUGGUAAUCUCAACAGCUCGCAGUCAAG | -0.306
57 | GGUCACGUCUCAAUCAACUCUUUCGAGGGGGGGAAAACCCCUUUGCCCUCACUAUCAACAGCUCGCAGUCAAG | 0.2
58 | GGUCACGUCUCAAUCAACUCAAUAGAGGGGGGGAAAACCCCUUUGCCCUCCACAUCAACAGCUCGCAGUCAAG | 0.0561
59 | GGUCACGUCUCAAUCAACUCUUCUUCCAGGGAAAUCCCUGGCAUAUUCAACAGCUCGCAGUCAAG | 0.125
60 | GGUCACGUCUCAAUCAACUCCAACGAGGGGGGGAAAACCCCUUUACCCUCAUCCUCAACAGCUCGCAGUCAAG | -0.312
61 | GGUCACGUCUCAAUCAACUCAGUCCCCAGGGAAACCCCUGGCAUUUUCAACAGCUCGCAGUCAAG | -0.549
62 | GGUCACGUCUCAAUCAACUCUUUCCCAGGAGUUUUCUCCUGUUAAUUCAACAGCUCGCAGUCAAG | -0.189
63 | GGUCACGUCUCAAUCAACUCAUCAGAGGGGGGGAAAACCCCUUUACCCUCCCAUUCAACAGCUCGCAGUCAAG | 0.112
64 | GGUCACGUCUCAAUCAACUCAGUCUCCAGGGAAAACCCUGGCUUAUUCAACAGCUCGCAGUCAAG | -0.0825
65 | GGUCACGUCUCAAUCAACUCAAUUCCAGGAGUUUCCUCCUGUUUAUUCAACAGCUCGCAGUCAAG | -0.0688
66 | GGUCACGUCUCAAUCAACUCUUAAGAGGGGGGGAAAACCCCUUUACCCUCACACUCAACAGCUCGCAGUCAAG | -0.0851
67 | GGUCACGUCUCAAUCAACUCAACUUCCAGGGAAAACCCUGGUUAUUUCAACAGCUCGCAGUCAAG | 0.173
68 | GGUCACGUCUCAAUCAACUCAUCGCCAGGAGUUUACUCCUGUUAUUUCAACAGCUCGCAGUCAAG | -0.237
69 | GGUCACGUCUCAAUCAACUCAUCCCCAGGAGUUUACUCCUGUUUUCUCAACAGCUCGCAGUCAAG | 0.157
70 | GGUCACGUCUCAAUCAACUCAACUUCCAGGGAAAGCCCUGGUUAAUUCAACAGCUCGCAGUCAAG | 0.0708
71 | GGUCACGUCUCAAUCAACUCUUUCCCAGGAGUUUCCUCCUGCUUAUUCAACAGCUCGCAGUCAAG | -0.039
72 | GGUCACGUCUCAAUCAACUCUCCCGAGGGGGGGAAAACCCCUUUACCCUCCACAUCAACAGCUCGCAGUCAAG | 0.213
73 | GGUCACGUCUCAAUCAACUCAUUCCCAGGAGUUUGCUCCUGCUAUCUCAACAGCUCGCAGUCAAG | 0.279
74 | GGUCACGUCUCAAUCAACUCUUCGUCAGGAGUUUCCUCCUGUUUUCUCAACAGCUCGCAGUCAAG | -0.171
